Data taken from PubChem BioAssay AID624417 (National Center for Advancing Translational Sciences (NCATS), 2012).
Screen size: about 410,000 compounds; about 6,400 (1.6%) were called active. This list was built around the results that the source calls inconclusive (neither active nor inactive); the mix of calls is not that of the screen. Calls follow the shape of the dose curve; as a rule, active = well fitted inhibition curve with a large enough effect; inconclusive = small, poorly fitted or top-dose-only effect; inactive = no such curve, though single readings can be large or run the other way. Potencies of inconclusive entries are left out as doubtful fits.

Target: Glucagon-like peptide 1 receptor (Homo sapiens) (UniProt P43220)
Experiment: qHTS of GLP-1 Receptor Inverse Agonists (Inhibition Mode); also: nearly all actives have a fitted effect of over 55% in size
Settings: HEK293 GLP-1R CRE-luciferase, luminescence, 24 h, GLP-1R form is constitutively active; series mostly up to 38.3 µM
In short: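 Inverse agonists were sought by their lowering of basal cAMP reporter luciferase output in HEK293 cells stably carrying constitutively active human GLP-1R, after 24 h compound treatment.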
Potency is read from the fitted curve at half-maximal effect; tags tell the direction and shape of the fitted curve.

Chain of UniProt P43220 (P43220 whole entry, looked up): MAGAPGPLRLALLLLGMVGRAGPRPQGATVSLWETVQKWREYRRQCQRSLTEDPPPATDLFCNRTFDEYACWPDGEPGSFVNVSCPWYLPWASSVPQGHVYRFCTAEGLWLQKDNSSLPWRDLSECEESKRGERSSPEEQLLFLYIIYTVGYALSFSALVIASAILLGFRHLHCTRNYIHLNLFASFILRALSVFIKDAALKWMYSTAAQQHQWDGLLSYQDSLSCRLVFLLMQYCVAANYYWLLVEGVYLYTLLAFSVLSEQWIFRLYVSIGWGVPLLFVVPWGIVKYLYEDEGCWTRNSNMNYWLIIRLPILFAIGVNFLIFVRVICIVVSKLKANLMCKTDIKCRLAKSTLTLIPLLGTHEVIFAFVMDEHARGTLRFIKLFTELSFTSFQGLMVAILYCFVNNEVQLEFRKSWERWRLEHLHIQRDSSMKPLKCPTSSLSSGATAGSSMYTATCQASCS

For `CCn1c(-c2ccccc2)c(C(=O)CCl)c2ccccc21`, which Potency is on record?
Its Potency is inconclusive [inhibitor, single point].

Which Potency does the source give for `Cn1nc(C(=O)NC2CCCCC2)c2c1-c1ccccc1SC2` here?
The Potency was “inactive”.

`CCN(CC)CCN1C(=O)C2C3c4ccccc4C(c4ccccc43)C2C1=O` (stereo not drawn) was tested. Which Potency did it give?
The Potency was inconclusive [inhibitor, partial curve, poor fit].

`O=C(O)c1cc(-c2ccc(C(F)(F)F)cc2)nc2n[nH]c(-c3ccccc3)c12` was tested. Which Potency did it give?
Its Potency is “inactive”.

How did the Potency turn out when `CCc1cccc(NC(=O)CCc2nc(-c3cccs3)no2)c1` was run?
Its Potency is inconclusive [inhibitor, single point].

With `CCc1cccc(NC(=O)CN(c2ccc(C)cc2)S(=O)(=O)c2c(C)noc2C)c1` as the molecule, how does the Potency read?
The Potency was inconclusive [inhibitor, partial curve, poor fit].

How did the Potency turn out when `O=C(COC(=O)c1ccccc1NCCO)NCCC1=CCCCC1` was run?
The Potency was inconclusive [inhibitor, partial curve, poor fit].

`O=C(CCN1C(=O)/C(=C\C=C\c2ccccc2)SC1=S)Nc1cccc(C(=O)O)c1` was tested. Which Potency did it give?
Its Potency is “inactive”.

`CC(C)C1=NN(C(=O)c2cccnc2)C(O)(C(F)(F)F)C1` (stereo not drawn) was tested. Which Potency did it give?
The Potency was “inactive”.

Which Potency does the source give for `CC(=O)Nc1cc(C(F)(F)F)ccc1Oc1cccc(Br)c1` here?
Its Potency is inconclusive [inhibitor, partial curve, poor fit].

With `CC1(C(=O)NCc2cccc(C(F)(F)F)c2)CCN1Cc1cc2ccccc2o1` (stereo not drawn) as the molecule, how does the Potency read?
Its Potency is inconclusive [inhibitor, partial curve, poor fit].

Which Potency does the source give for `COc1cc(CNCCc2ccccc2F)ccc1OCc1ccc(Cl)nc1` here?
The Potency was inconclusive [inhibitor, partial curve, poor fit].

Which Potency does the source give for `CCOC(=O)c1c(C)n(-c2ccccc2)c2ccc(OC(=O)c3ccccc3NC(=O)C(C)(C)C)cc12` here?
Its Potency is inconclusive [inhibitor, single point].

How did the Potency turn out when `CC(C)C[C@@H]1O[C@H](C(C)C)Cc2[nH][nH]c(=O)c21` was run?
The Potency was inconclusive [inhibitor, partial curve, poor fit].

Which Potency does the source give for `COc1c(C)cccc1C(=O)Nc1ccc(N2CCN(C(=O)c3ccccc3C)CC2)cc1` here?
Its Potency is inconclusive [inhibitor, partial curve, poor fit].

For `Cc1ccc(OCC(O)Cn2c(=N)n(CCN3CCCCC3)c3ccccc32)cc1` (stereo not drawn), which Potency is on record?
The Potency was inconclusive [inhibitor, single point].

Which Potency does the source give for `CC1(C)CC(=O)C2=C(C1)Oc1ncn(Cc3ccco3)c(=N)c1C2c1ccccc1` (stereo not drawn) here?
Its Potency is inconclusive [inhibitor, single point].

For `COC1=Nc2ccccc2/C=C\c2ccccc21`, which Potency is on record?
Its Potency is inconclusive [inhibitor, single point].

How did the Potency turn out when `Cc1ccc(-n2ncc(C(=O)NCCCN3CCCCC3)c2C2CCN(C(=O)OC(C)(C)C)CC2)cc1` was run?
Its Potency is inconclusive [inhibitor, partial curve, poor fit].

For `CCCCCCCCN1[C@@H](CC(=O)OCC)c2cc(F)ccc2S1(=O)=O`, which Potency is on record?
Its Potency is inconclusive [inhibitor, single point].

For `CC(=O)Nc1cc(Br)ccc1O`, which Potency is on record?
The Potency was “inactive”.

How did the Potency turn out when `COc1cc(/C=C2/S/C(=N/S(=O)(=O)c3ccccc3)NC2=O)c([N+](=O)[O-])cc1OC` was run?
Its Potency is “inactive”.

`O=S(=O)(Nc1cccc(S(=O)(=O)N2CCCC2)c1)c1cccc(Br)c1` was tested. Which Potency did it give?
The Potency was inconclusive [inhibitor, partial curve, poor fit].

`Cc1cc(N2CCCC2)ccc1NC(=O)COc1cccc(C(F)(F)F)c1` was tested. Which Potency did it give?
The Potency was inconclusive [inhibitor, partial curve].

With `Cc1onc(-c2ccccc2Cl)c1C(=O)Nc1ccccc1` as the molecule, how does the Potency read?
The Potency was inconclusive [inhibitor, single point].

With `Cc1ccc(C(=O)NCCn2ccc3ccccc32)cc1[N+](=O)[O-]` as the molecule, how does the Potency read?
Its Potency is inconclusive [inhibitor, single point].

For `COc1ccc(C2=NC(C)(C)N(CC(=O)Nc3ccc(F)c(F)c3)C2=O)cc1`, which Potency is on record?
Its Potency is “inactive”.

Which Potency does the source give for `C[C@@H]1CCCCO[C@@H](CN(C)S(=O)(=O)c2cccs2)[C@@H](C)CN([C@H](C)CO)C(=O)c2cc(NS(=O)(=O)c3ccccc3)ccc2O1` here?
The Potency was “inactive”.

How did the Potency turn out when `C[C@@H]1CN([C@@H](C)CO)C(=O)c2cccc(NC(=O)c3nc4ccccc4s3)c2O[C@@H]1CN(C)CC1CC1` was run?
Its Potency is inconclusive [inhibitor, single point].

For `CCN1CCN(c2cc(C)c3cc(NC(=O)c4cc(Cl)ccc4OC)ccc3n2)CC1`, which Potency is on record?
Its Potency is inconclusive [inhibitor, single point].

Which Potency does the source give for `COc1ccccc1[C@H]1C(c2cccc(C)c2)=NN(c2ccccc2)[C@@H]1CO` here?
Its Potency is inconclusive [inhibitor, single point].

How did the Potency turn out when `CC(=O)c1ccc(NC(=O)Cn2c(=O)n(Cc3ccco3)c(=O)c3sc4ccccc4c32)cc1` was run?
Its Potency is “inactive”.

Which Potency does the source give for `Cc1cccc2c1NC(=O)C21N2CCCC2C(C(=O)c2ccc3ccccc3c2)C12C(=O)Nc1ccccc12` (stereo not drawn) here?
Its Potency is inconclusive [inhibitor, single point].

With `Cc1ccc(N(Cc2cccs2)C(=O)COc2cccc(C)c2)cc1` as the molecule, how does the Potency read?
Its Potency is inconclusive [inhibitor, single point].

`CCOC(=O)c1ccc(NC(=O)CCNS(=O)(=O)c2cc(Br)cnc2N)cc1` was tested. Which Potency did it give?
The Potency was inconclusive [inhibitor, partial curve, poor fit].

How did the Potency turn out when `CS(=O)(=O)N(CC(=O)Nc1ccc2c(c1)OCO2)Cc1ccc(Cl)cc1` was run?
The Potency was inconclusive [inhibitor, single point].

Which Potency does the source give for `CC(Sc1nncs1)C(=O)Nc1ccc(S(=O)(=O)Nc2ncccn2)cc1` (stereo not drawn) here?
Its Potency is “inactive”.

With `NC1=NC2(CCCCC2)N=C(Nc2ccc(Br)cc2)N1` as the molecule, how does the Potency read?
The Potency was inconclusive [inhibitor, partial curve, poor fit].

For `Cc1ccc(S(=O)(=O)Cc2ccc(C(=O)N3CCC(C)CC3)cc2)cc1`, which Potency is on record?
Its Potency is inconclusive [inhibitor, full curve, poor fit].

`CCOc1ccc(CCNC(=O)c2ccc3ccccc3n2)cc1OCC` was tested. Which Potency did it give?
Its Potency is inconclusive [inhibitor, single point].

Which Potency does the source give for `CN(C)S(=O)(=O)N(CC(=O)Nc1ccc(S(=O)(=O)N2CCCC2)cc1)c1ccccc1` here?
Its Potency is inconclusive [inhibitor, single point].

`CCCN(CCC)CCCNC(=S)Nc1ccc2nc3n(c(=O)c2c1)CCCCC3` was tested. Which Potency did it give?
Its Potency is inconclusive [inhibitor, single point].

`Cc1cccc(OCc2n[nH]c(=S)n2C2CCCCC2)c1` was tested. Which Potency did it give?
Its Potency is inconclusive [inhibitor, single point].

For `Cc1cccc(N2CCN(C(=O)CCSCc3ccccc3F)CC2)c1C`, which Potency is on record?
Its Potency is inconclusive [inhibitor, single point].

For `FC(F)(F)c1ccccc1-c1ccc2nncn2c1`, which Potency is on record?
The Potency was “inactive”.

How did the Potency turn out when `CCc1ccc(-c2cc(C(=O)O)c3ccccc3n2)s1` was run?
Its Potency is inconclusive [inhibitor, partial curve, poor fit].

With `CC(C)(C)OC(=O)N1CCC(c2c(C(=O)NCC3CCN(C4CCCC4)C3)cnn2-c2cccc(Cl)c2)CC1` (stereo not drawn) as the molecule, how does the Potency read?
Its Potency is active: 12.6 µM.

For `O=C(CSC1=Nc2ccccc2C2CC=NN12)Nc1ccc2c(c1)OCO2` (stereo not drawn), which Potency is on record?
Its Potency is inconclusive [inhibitor, single point].

`CCCc1cnc2c(c1SCc1ccc(C(F)(F)F)cc1)c(=O)n(C)c(=O)n2C` was tested. Which Potency did it give?
Its Potency is “inactive”.

Which Potency does the source give for `CCCN(CC(=O)Nc1ccccc1OC)C(=O)CCC(=O)c1ccc(Cl)s1` here?
Its Potency is inconclusive [inhibitor, partial curve, poor fit].

With `CCN1C(=O)C2(c3ccccc31)c1c(oc3ccc(F)cc3c1=O)C(=O)N2CCCOC` (stereo not drawn) as the molecule, how does the Potency read?
Its Potency is “inactive”.

For `CCCCC(=O)N(C)c1c(CC)nc2c(OCCOc3ccccc3)cccn12`, which Potency is on record?
The Potency was inconclusive [inhibitor, single point].

For `C=CCOc1ccc(/C=C/C(=O)OCC(=O)NCc2cccc(OC)c2)cc1`, which Potency is on record?
Its Potency is “inactive”.

With `CCN(CC(=O)Nc1c(F)cccc1F)C(=O)c1ccc(-c2ccccc2)cc1` as the molecule, how does the Potency read?
Its Potency is inconclusive [inhibitor, single point].

For `Cc1c(Cl)cccc1NC(=S)N1CCc2ccccc2C1`, which Potency is on record?
The Potency was inconclusive [inhibitor, partial curve, poor fit].

Which Potency does the source give for `O=C1CN(C(=O)Nc2ccccc2C(F)(F)F)C(c2ccccc2)c2c(sc3c2CCCC3)N1` (stereo not drawn) here?
The Potency was inconclusive [inhibitor, single point].

With `CC(CC(c1ccccc1)N1CCc2ccccc2C1)=NO` (stereo not drawn) as the molecule, how does the Potency read?
Its Potency is inconclusive [inhibitor, partial curve, poor fit].

For `O=C(N/N=C/c1ccc(O)cc1)c1ccc(COc2cc(Cl)ccc2Cl)o1`, which Potency is on record?
Its Potency is active: 1.41 µM.

With `CCCN1CCc2c(sc3nc(SCC)n(-c4ccccc4)c(=O)c23)C1` as the molecule, how does the Potency read?
The Potency was inconclusive [inhibitor, full curve, poor fit].

With `CCC(=O)NCCc1nc2cc(NC(=O)c3ccc(Cl)cc3)ccc2n1C` as the molecule, how does the Potency read?
The Potency was inconclusive [inhibitor, single point].

`COC(=O)c1ccc(COc2cc(O)c3c(c2)OC(C)(C)CC3=O)cc1` was tested. Which Potency did it give?
The Potency was inconclusive [inhibitor, partial curve, poor fit].

`CCOC(=O)c1cnc2ccc(OCC)cc2c1N1CCN(c2ccccc2OC)CC1` was tested. Which Potency did it give?
Its Potency is inconclusive [inhibitor, single point].

With `N=c1n(CCN2CCCCC2)c2ccccc2n1CC(O)c1cccc(Br)c1` (stereo not drawn) as the molecule, how does the Potency read?
The Potency was inconclusive [inhibitor, partial curve, poor fit].
